In all, about 330,000 compounds went through this assay and about 1,700 (0.52%) were called active. Inconclusive means that the source gave no clear call. Such entries were picked first, then a sample of the others. The call rests on the fitted dose curve; in most records, active means well fitted inhibition curve with a large enough effect; inconclusive means small, poorly fitted or top-dose-only effect; inactive means no such curve, though single readings can be large or run the other way. Potencies beside an inconclusive call are fits to weak or partial responses and may not hold up.
What follows are molecules tested against Beta-lactamase (Escherichia coli (strain K12)) (UniProt P00811) (assay: qHTS Inhibitors of AmpC Beta-Lactamase (assay without detergent)). Details: AmpC nitrocefin hydrolysis, absorbance 480 nm, 0.0001% Triton; activity change, negative = inhibition: at 57.1 µM (top of the series) unless noted.
UniProt P00811, sequence (P00811 whole entry, looked up): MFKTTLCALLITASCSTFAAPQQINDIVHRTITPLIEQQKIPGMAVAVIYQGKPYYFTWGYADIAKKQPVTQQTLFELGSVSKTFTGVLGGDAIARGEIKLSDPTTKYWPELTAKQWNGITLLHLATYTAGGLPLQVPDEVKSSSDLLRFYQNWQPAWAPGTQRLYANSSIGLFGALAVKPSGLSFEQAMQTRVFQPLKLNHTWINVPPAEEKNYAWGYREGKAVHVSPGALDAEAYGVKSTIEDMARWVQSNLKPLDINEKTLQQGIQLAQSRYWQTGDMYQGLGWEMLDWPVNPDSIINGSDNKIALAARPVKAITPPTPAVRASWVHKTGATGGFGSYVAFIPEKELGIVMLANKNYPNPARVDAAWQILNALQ
Method in brief: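 AmpC (5.3 nM in the dispensed reagent) in 20 mM phosphate pH 7.0 with 0.01% (detergent screen) or 0.0001% Triton X-100 was preincubated with compounds for 15 min at room temperature. Nitrocefin was then added from an 800 uM solution, and hydrolysis was followed at 480 nm.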
Further: nearly all actives have a fitted effect of over 20% in size.
Potency means the concentration at half of the fitted maximal effect; tags describe the fitted curve by direction and shape.
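Wherever activity change, negative = inhibition is given: plate controls were no compound for no effect and no enzyme for full effect.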

Question: How did the Potency turn out when `COc1cccc(C2C(C(=O)c3cc4cccc(OC)c4o3)=C(O)C(=O)N2c2cc(C)on2)c1OC` (configuration not stated) was run?
Answer: active: 20 µM

Question: `CC(C)Cn1c(N)c(C(=O)CSc2n[nH]c(N)n2)c(=O)n(C)c1=O` was tested. Which “activity change, negative = inhibition” value did it give?
Answer: inactive: -24.3%

Question: With `CC1CC(=O)N(CC(=O)Nc2ccc3c(c2)OCO3)c2ccccc2S1` (configuration not stated) as the molecule, how does the “activity change, negative = inhibition” value read?
Answer: inactive: -7.61%

Question: With `CCOc1ccc(NC(=O)C(C)Sc2nnc(C)n2C)cc1` (configuration not stated) as the molecule, how does the Potency read?
Answer: active: 3.55 µM

Question: Which Potency does the source give for `O=C(Nc1ccc(F)cc1)C1C2CCC3C(CCC21)C3(Cl)Cl` (configuration not stated) here?
Answer: active: 14.1 µM

Question: Which Potency does the source give for `Cc1cccc(/C=C(\C(=O)O)c2ccc(S(=O)(=O)N3CCCC3)s2)c1` here?
Answer: active: 31.6 µM

Question: `O=C(CN1CCCC1)Nc1ccc(NC(=O)Nc2ccccc2Cl)cc1` was tested. Which Potency did it give?
Answer: active: 15.8 µM

Question: Which Potency does the source give for `O=C(/C=C/c1c[nH]c2ccccc12)c1ccccc1` here?
Answer: active: 15.8 µM

Question: With `Cc1ccc(NC(=O)c2cc([N+](=O)[O-])ccc2N2CCOCC2)cc1S(=O)(=O)N1CCOCC1` as the molecule, how does the “activity change, negative = inhibition” value read?
Answer: inactive: 67.4%

Question: How did the “activity change, negative = inhibition” value turn out when `Clc1ccc(COn2c(-c3ccc(Cl)cc3)nc3ccccc32)cc1` was run?
Answer: inactive: -17.6%

Question: `Cc1ccccc1NC(=O)C1CCCN(S(=O)(=O)c2cccc3cccnc23)C1` (configuration not stated) was tested. Which Potency did it give?
Answer: active: 5.01 µM

Question: With `CC(=O)c1cc(-c2ccccc2)n(CC(=O)Nc2ccc(C)c(C)c2)c1C` as the molecule, how does the Potency read?
Answer: active: 11.2 µM

Question: `Cc1ccc(C(=O)Nc2c(-c3cccs3)nc3cc(C)ccn23)cc1` was tested. Which Potency did it give?
Answer: inconclusive: 8.91 µM [inhibitor, single point]

Question: `O=C(CCCn1c(=S)[nH]c2ccccc2c1=O)N1CCCCC1` was tested. Which Potency did it give?
Answer: inconclusive: 0.141 µM [inhibitor, full curve, poor fit]

Question: For `COc1ccc(Nc2nc(C)cc(C)c2C(N)=O)c(OC)c1`, which Potency is on record?
Answer: inconclusive: 4.47 µM [inhibitor, single point]

Question: With `Cc1cccc(NC(=O)CSc2nnc(-c3ccco3)c(-c3ccco3)n2)c1C` as the molecule, how does the Potency read?
Answer: inconclusive: 31.6 µM [inhibitor, single point]

Question: With `CC1CCN(S(=O)(=O)c2ccc(NC(=O)CN3CCN(C)CC3)cc2)CC1` as the molecule, how does the Potency read?
Answer: inconclusive: 6.31 µM [inhibitor, single point]

Question: `O=C(Nc1cc(Sc2ccccn2)cc([N+](=O)[O-])c1)c1ccc(Cl)cc1` was tested. Which Potency did it give?
Answer: active: 31.6 µM

Question: With `CN(C)C1(CN=Cc2cc(Cl)cc([N+](=O)[O-])c2O)CCCCC1` as the molecule, how does the Potency read?
Answer: inconclusive: 10 µM [inhibitor, partial curve, poor fit]

Question: How did the “activity change, negative = inhibition” value turn out when `CCN1CCN(c2nc3ccccc3n3cnnc23)CC1` was run?
Answer: inactive: -7.48%

Question: `COc1cc(OC)cc(C(=O)Nc2nc(-c3ccccc3)c(-c3ccccc3)o2)c1` was tested. Which Potency did it give?
Answer: inconclusive: 3.16 µM [inhibitor, full curve, poor fit]

Question: With `COc1ccc(C(=O)CN2C(=O)NC3(CCCCCC3)C2=O)c(OC)c1` as the molecule, how does the Potency read?
Answer: inconclusive: 39.8 µM [inhibitor, single point]
